Test results as given in PubChem BioAssay AID445 (National Center for Advancing Translational Sciences (NCATS), 2006).
Screen size: about 110,000 compounds; about 40 (0.04%) were called active. This list was built around the results that the source calls inconclusive (neither active nor inactive); the mix of calls is not that of the screen. The call rests on the fitted dose curve; in most records, active means well fitted curve in the direction sought with a large enough effect in the signal ratio (not every such curve was filed as active); inconclusive means small, poorly fitted or top-dose-only effect, or a change in a side signal; inactive means flat fitted curve, though single readings scatter; the % refers to the signal ratio. Potencies of inconclusive entries are doubtful fits and often do not repeat.

Assay: IkB Signaling;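 on IkBa stabilization activation: 0% = basal untreated cells and 100% = reference inhibitor full response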
Settings: ABC-DLBCL IkBa-CBG/CBR dual luciferase ratio (green luciferase fused to IkBa over red control in OCI-Ly3 lymphoma cells), 4 h; IkBa stabilization activation: at 57.1 µM (top of the series), scaled: untreated 0%, proteasome inhibitor 100% unless noted
How it was run: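 Curves were fitted separately to fusion (green), unfused (red) and ratio luminescence, then classed by r2, magnitude and activity. Cells: OCI-Ly3, 4 h compound plus doxycycline at 37C; 10 uM MG-132 defined full response.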
Potency means the concentration at half of the fitted maximal effect.

Row | SMILES | IkBa stabilization activation | Potency
1 | Cc1ccc(N(C)S(=O)(=O)c2ccc(-c3coc(C)n3)cc2)cc1 | inconclusive: 2.36% [signal inhibitor] | 
2 | O=C(CSc1nnc(-c2c[nH]c3ccccc23)o1)N(Cc1ccccc1)c1ccc(F)cc1 | inconclusive: 13% [signal inhibitor] | 
3 | COc1ccc(OC)c(Nc2cc(C(=O)NCCCN3CCOCC3)c3ccccc3n2)c1 | inactive | 
4 | CCn1cc(C(=O)Nc2ccc3c(c2)OCCO3)c2cc(OC)c(OC)cc2c1=O | inconclusive: 4.7% [signal inhibitor] | 
5 | CCc1nc2ccc(C(=O)N3CCN(c4cc(C)ccc4C)CC3)cc2nc1CC | inconclusive: 0.251% [signal inhibitor] | 
6 | CCOc1ccc(CCNC(=O)c2cc3sccc3n2CC)cc1OCC | inconclusive: 0.682% [signal inhibitor] | 
7 | CCOC(=O)CSc1nnc(CSc2nc3ccccc3c(=O)[nH]2)n1-c1ccccc1 | inconclusive: 0.293% [signal inhibitor] | 
8 | Cc1nc2c(-c3ccc(F)cc3)c(C)nn2c(N2CCOCC2)c1C | inconclusive: 0.158% [signal inhibitor] | 
9 | O=C(COC(=O)c1cccnc1Nc1cccc(C(F)(F)F)c1)NCCN1C(=O)CSC1=O | inconclusive: -1.24% [signal inhibitor] | 
10 | Cc1ccc(-n2nc3c(N4CCC(C(=O)NC5CCCCC5)CC4)nnc(C)c3c2C)cc1 | inconclusive: -1.33% [signal inhibitor] | 
11 | CCCCn1cnc2c(SC)ncnc21 | inactive: -0.397% [at 11.4 µM, scaled: untreated 0%, proteasome inhibitor 100%] | 
12 | COc1ccc(-c2ccc(CNCCCSc3nnnn3C)o2)cc1Cl | inactive | 
13 | Cc1ccc(/C=C/C(=O)N2CCC(c3nc4ccccc4o3)CC2)cc1 |  | inconclusive: 2.51 µM [signal inhibitor]
14 | O=C(NCCCN1CCN(Cc2ccccc2)CC1)C1CCN(c2nnc(-n3cccc3)s2)CC1 | inconclusive: 3.18% [signal inhibitor] | 
15 | Cc1ccc(N2CC(NC(=O)c3cccs3)CC2=O)cc1 (stereo unspecified) | inactive | 
16 | NNC(=O)c1ccc(OCc2nc3ccccc3[nH]2)cc1 | inactive: 3.6% [at 11.4 µM, scaled: untreated 0%, proteasome inhibitor 100%] | 
17 | CCc1cccc(CC)c1NC(=O)c1c(C)oc2ccc(O)c(CN3CCCC3)c12 | inconclusive: 2.79% [signal inhibitor] | 
18 | COc1ccc(CCNc2oc(Cc3cccc4ccccc34)nc2C#N)cc1OC | inconclusive: 5.3% [signal inhibitor] | 
19 | Cc1nc(NC(=O)c2cc3c(s2)CCCCC3)sc1C(=O)N(C)C | inconclusive: 9.04% [signal inhibitor] | 
20 | Cc1ccc(N2C(=O)CSC23C(=O)N(CC(=O)NCc2ccccc2)c2ccccc23)cc1 (stereo unspecified) | inconclusive: 0.233% [signal inhibitor] | 
21 | O=C(CN1C(=O)C2(SCC(=O)N2c2ccc(F)cc2)c2ccccc21)NC1CCCCC1 (stereo unspecified) | inconclusive: 2.7% [signal inhibitor] | 
22 | Cc1ccccc1-n1nnnc1SCc1csc(-c2ccccc2)n1 | inconclusive: 1.67% [signal inhibitor] | 

Row | SMILES | IkBa stabilization activation | Potency
23 | Cc1ccc2c(c1)C(=O)OC(C(=O)Nc1ccccc1C(=O)O)C2 (stereo unspecified) |  | inconclusive: 31.6 µM [signal inhibitor, single point]
24 | CC1=CC(C)(C)N2C(=O)C3(C(C#N)=C(N)Oc4cc(O)ccc43)c3cccc1c32 (stereo unspecified) | inactive | 
25 | NC(=O)c1ccccc1N/C=C/C(=O)c1ccccc1 |  | inconclusive: 2 µM [signal inhibitor, full curve]
26 | Cc1nn2c(C)c(C(=O)N3CCN(c4ccc(Cl)cc4)CC3)cnc2c1-c1ccc(F)cc1 | inactive | 
27 | O=S(=O)(c1ccc(-c2cnc(C3CC3)o2)cc1)N1CCN(c2ccccc2F)CC1 | inconclusive: 0.85% [signal inhibitor] | 
28 | O=C(NCCCN1CCN(c2cccc(Cl)c2)CC1)c1ccc2nc(Cc3ccccc3)oc2c1 | inconclusive: 2.33% [signal inhibitor] | 
29 | COc1cccc(CNC(=O)Cn2nc(C)c3sc4ccccc4c3c2=O)c1OC | inconclusive: -2.32% [signal inhibitor] | 
30 | Cc1cccc(C)c1OCC(=O)N(Cc1ccco1)Cc1ccco1 | inconclusive: -0.514% [signal inhibitor] | 
31 | C=Cc1ccc(Cn2c(C)c(CNCCc3ccc(OCC)cc3)c(C(=O)O)c2C)cc1 | inconclusive: 1.67% [signal inhibitor] | 
32 | CCn1cc(C(=O)N2CCN(c3cccc(Cl)c3)CC2)c(=O)c2cc(S(=O)(=O)N3CCC(C)CC3)ccc21 | inconclusive: 1.05% [signal inhibitor] | 
33 | Cc1ccc2c(=O)cc(CSc3ncn[nH]3)[nH]c2c1C | inconclusive: -1.27% [signal inhibitor] | 
34 | Cc1cc(O)c(C(C)C)cc1CN1CCCCC1 | inactive: -1.15% [at 11.4 µM, scaled: untreated 0%, proteasome inhibitor 100%] | 
35 | COc1cc(C(=O)NCCc2sc(-c3cccc(F)c3)nc2C)cc(OC)c1OC | inconclusive: 1.5% [signal inhibitor] | 
36 | Cc1nc2cc(-c3cccc(F)c3)nn2c(C)c1CCC(=O)NC(C)c1ccccc1 (stereo unspecified) | inconclusive: 8.29% [signal inhibitor] | 
37 | COC(=O)c1c(NC(=O)C2c3ccccc3Oc3ccccc32)sc2c1CCC(C(C)(C)C)C2 (stereo unspecified) | inconclusive: 7.19% [signal inhibitor] | 
38 | Fc1ccc(Nc2ccnc(-c3ccc4c(c3)OCO4)n2)cc1 | inactive: -0.551% [at 11.4 µM, scaled: untreated 0%, proteasome inhibitor 100%] | 
39 | CCSc1nnc(NC(=O)c2cc(=O)c3cc(C)ccc3o2)s1 | inactive | 
40 | O=C(CSc1oc(-c2ccc(F)cc2)nc1S(=O)(=O)c1ccccc1)NC1CCCCC1 | inconclusive: -1.59% [signal inhibitor] | 
41 | O=S1(=O)N=C(Oc2ccccc2)c2ccccc21 | inactive | 
42 | COc1ccc(CN(C(=O)CSc2nnc(-c3ccccc3F)o2)c2ccc(F)cc2)cc1 | inconclusive: 1.4% [signal inhibitor] | 
43 | CC(CCc1ccccc1)NC(=O)Cn1ncc2c3ccccc3n(Cc3ccccc3)c2c1=O (stereo unspecified) | inactive | 
44 | CCOC(=O)c1ccc(NC(=O)c2oc3c(c2C)-c2nn(Cc4ccccc4Cl)cc2CC3)cc1 |  | inconclusive: 15.8 µM [signal inhibitor]

Row | SMILES | IkBa stabilization activation | Potency
45 | COCCOC(=O)c1c(C)oc2ccc(NS(=O)(=O)c3ccc(F)cc3)cc12 | inconclusive: 3.05% [signal inhibitor] | 
46 | Cn1c(=O)c2c(nc(NCCc3ccccc3)n2Cc2ccc(F)cc2)n(C)c1=O | inconclusive: 9.63% [signal inhibitor] | 
47 | CN(c1cccc(NC(=O)Nc2cccc(Cl)c2)c1)S(C)(=O)=O | inconclusive: 2.56% [signal inhibitor] | 
48 | CCN1CCN(c2oc(COc3ccc(-c4ccccc4)cc3)nc2C#N)CC1 | inconclusive: -0.533% [signal inhibitor] | 
49 | Cc1cc2oc(C(=O)N(Cc3ccc(N(C)C)cc3)Cc3ccco3)c(C)c2cc1Cl | inconclusive: 1.13% [signal inhibitor] | 
50 | Cc1ccccc1Nc1nc(N)c(C(=O)c2ccccc2Cl)s1 | inconclusive: 4.03% [signal inhibitor] | 
51 | CCCCc1ccc(NC(=O)CSc2nc(=O)[nH]c3c2CCCC3)cc1 | inconclusive: -1.28% [signal inhibitor] | 
52 | COc1ccc(Cl)cc1N(C)C(=O)CCc1nc(-c2ccc(C)cc2)no1 | inconclusive: 3.72% [signal inhibitor] | 
53 | O=C1C(=O)N(C2CCN(C(=O)c3cccc(Cl)c3)CC2)CCN1Cc1ccc(F)cc1 | inactive | 
54 | O=C(CSc1nc2c([nH]c3ccccc32)c(=O)n1-c1ccccc1F)Nc1cccc(C(F)(F)F)c1 | inconclusive: -0.128% [signal inhibitor] | 
55 | CCOc1ccc(NC(=O)c2cnc3sc(N4CCOCC4)nn3c2=O)cc1 | inactive | 
56 | COC(=O)CCN(c1ccccc1)C(CNS(=O)(=O)c1ccccc1)c1ccccc1 (stereo unspecified) | inconclusive: 2.81% [signal inhibitor] | 
57 | O=C(Nc1cccc(C(=O)OCc2cc(=O)n3nc(C4CC4)sc3n2)c1)c1cccc(Cl)c1 | inconclusive: 7.64% [signal inhibitor] | 
58 | COc1ccc(-c2nnc(SC(C)C(=O)O)o2)cc1 (stereo unspecified) |  | inconclusive: 25.1 µM [signal inhibitor, single point]
59 | O=C(CN1C(=O)CSc2ccc(S(=O)(=O)N3CCCC3)cc21)NCc1ccccc1Cl | inconclusive: 0.349% [signal inhibitor] | 
60 | CC(=O)N1CCCc2cc(S(=O)(=O)N3CCCC(C(=O)NC(C)C)C3)ccc21 (stereo unspecified) | inconclusive: 0.261% [signal inhibitor] | 
61 | CCCCNC(=O)CCc1c(C)nc2cc(-c3ccccc3)nn2c1C | inconclusive: 6.3% [signal inhibitor] | 
62 | CC(=O)c1cccc(NC(=O)C2CCCN(S(=O)(=O)c3cccc4cccnc34)C2)c1 (stereo unspecified) | inconclusive: 12.7% [signal inhibitor] | 
63 | Cc1[nH]c2ccccc2c1C1(O)C(=O)N(Cc2ccccc2)c2ccc(Cl)cc21 (stereo unspecified) | inconclusive: -5.95% [signal inhibitor] | 
64 | COc1ccc(N2C(=O)C(CC(=O)Nc3ccccc3)N(CCC3=CCCCC3)C2=O)cc1 (stereo unspecified) | inactive | 
65 | CC(C)C(OC(=O)c1cc2sccc2n1C)C(=O)NCC1CCCO1 (stereo unspecified) | inactive | 
66 | CC(C)Oc1ccc(CNC(=O)c2sc3ncccc3c2-n2cccc2)cc1 | inconclusive: -0.625% [signal inhibitor] | 
